Source: the supplement of paper PMC9433436
± gives the standard deviation of the averaged measurements. Whole data set: some 4,100 sequences, median “relative kcat/Km (krel) vs genomic leader AAAGAU” near 1.7, cut for the highest 2% near 6.5. This is a selection; strong and weak results do not stand in their true shares.

Molecular target: T1, E. coli RNase P holoenzyme (M1 P RNA + rnpA protein) (UniProt P0A7Y8)
T1 sequence: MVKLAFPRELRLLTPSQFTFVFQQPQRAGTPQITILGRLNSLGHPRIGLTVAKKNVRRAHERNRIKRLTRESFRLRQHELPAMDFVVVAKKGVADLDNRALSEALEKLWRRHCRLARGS
Experiment: relative kcat/Km (krel) vs genomic leader AAAGAU (relative (reference leader = 1)); higher = faster RNase P cleavage
Procedure: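 HTS-Kin: a pool of ptRNA-Met (21C construct) with all 4096 combinations of 5' leader nucleotides N(-6) to N(-1) was processed in vitro by E. coli RNase P (P RNA + rnpA/C5 protein) under multiple-turnover conditions at 37 C, pH 8, 17.5 mM MgCl2. Residual substrate was Illumina-sequenced at several fractions reacted, and relative kcat/Km (krel) was computed by internal competition kinetics, calibrated to the genomic leader (AAAGAU = 1). The listed hexamer is the varied N(-6)..N(-1) leader (DNA letters), and it sits between a fixed 5' stem-loop flank (GCAUGCACGAAAGUGCGUGCUAUGAA) and the mature tRNA-Met starting GGCUACGUAGCUCAGUUGG. Two technical replicates are averaged.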

[1] = fraction of substrate reacted: ~9-10% (9.79% repeat 1, 9.1% repeat 2)
[2] = fraction of substrate reacted: ~13-16% (15.68% repeat 1, 13.17% repeat 2)
[3] = fraction of substrate reacted: ~26-29% (28.66% repeat 1, 26.4% repeat 2)

| Sequence | relative kcat/Km [1] | relative kcat/Km [2] | relative kcat/Km [3] |
| --- | --- | --- | --- |
| TCATTT | 3.58 ± 1.6 | 4.04 ± 0.4 | 6.04 ± 2.5 |
| TGGTAC | – | 0.76 ± 0.74 | 0.612 ± 0.15 |
| ATGAGT | 1.42 ± 0.72 | – | 0.564 ± 0.22 |
| CCTGTT | 1.06 ± 0.7 | – | 1.62 ± 0.7 |
| GGGTAT | – | 1.13 ± 0.41 | 1.76 ± 1.6 |
| CATTCA | 2.03 ± 0.96 | 2.26 ± 0.27 | 2.76 ± 0.83 |
| TATATG | – | 0.979 ± 0.056 | 2.81 ± 0.6 |
| TTACAA | 2.54 ± 2 | 2.85 ± 0.95 | 4.16 ± 1.8 |
| TTTCTA | 2.15 ± 0.72 | 2.3 ± 0.57 | 2.89 ± 1.2 |
| GCCACA | 2.03 ± 0.3 | 2.52 ± 0.9 | 4.01 ± 1.5 |
| CGTTTA | 2.35 ± 0.28 | 3.11 ± 0.48 | 4.14 ± 1.4 |
| ACACAT | 2.48 ± 1.5 | 3.18 ± 0.39 | 4.1 ± 1.6 |
| AGACGG | – | 0.433 ± 0.39 | – |
| GCATCA | – | 1.3 ± 1.1 | 1.4 ± 0.13 |
| ACCATC | 2.48 ± 0.84 | 2.51 ± 0.46 | 3.82 ± 0.76 |
| TTGCTT | 1.5 ± 0.55 | 1.36 ± 0.26 | 2.15 ± 0.85 |
| GAACAA | 1.26 ± 1.2 | 1.76 ± 0.95 | 2.38 ± 0.33 |
| TGCAAT | 0.917 ± 0.7 | 1.18 ± 0.72 | 1.9 ± 0.94 |
| TCTGTT | 1.56 ± 0.75 | 1.38 ± 1.1 | 1.89 ± 1.2 |
| TATTAG | 2.38 ± 2.3 | 2.95 ± 0.03 | 4.43 ± 1.4 |
| ACCATG | – | – | 1.58 ± 0.72 |
| TCAAAA | 2.12 ± 1.1 | 1.64 ± 0.34 | 2.89 ± 1.2 |
| TGTGAG | 1.35 ± 0.94 | – | 1.18 ± 0.15 |
| AACCAG | – | 0.703 ± 0.2 | 2.58 ± 0.11 |

| Sequence | relative kcat/Km [1] | relative kcat/Km [2] | relative kcat/Km [3] |
| --- | --- | --- | --- |
| TTATCT | 2.77 ± 0.45 | 3.58 ± 0.95 | 5.02 ± 2.2 |
| GGGTGC | 0.876 ± 0.24 | 0.837 ± 0.025 | 1.04 ± 0.35 |
| TACCTT | 2.52 ± 0.33 | 3.78 ± 0.62 | 5.64 ± 2.6 |
| GTCATG | – | 1.48 ± 0.37 | 3.5 ± 0.91 |
| TCCATC | 3.7 ± 1.8 | 3.95 ± 0.47 | 6.33 ± 2.3 |
| GCTCTA | 0.921 ± 0.12 | 0.567 ± 0.2 | 1.21 ± 0.26 |
| GCCTCA | 3.93 ± 1.6 | 4.02 ± 0.47 | 5.77 ± 2.1 |
| TGCATG | – | – | 1.12 ± 0.18 |
| CGTCTT | 3.18 ± 0.98 | 3.53 ± 0.78 | 4.33 ± 1.6 |
| CGGCTC | 0.705 ± 0.047 | – | – |
| GATCGA | 2.37 ± 0.82 | 2.79 ± 1.2 | 4.26 ± 1.2 |
| GTTGAA | 2.16 ± 0.94 | 2.71 ± 0.089 | 3.54 ± 1.2 |
| AGGTCG | – | – | 0.539 ± 0.51 |
| AGGTCT | – | 1.17 ± 0.5 | 0.922 ± 0.2 |
| AAGTCG | – | – | 1.33 ± 0.073 |
| AGGGGT | – | – | 0.973 ± 0.015 |
| GTATTT | 3.06 ± 2 | 3.71 ± 0.4 | 5.37 ± 1.9 |
| ATGAGG | – | – | 0.439 ± 0.23 |
| GACCGG | – | – | 0.689 ± 0.39 |
| TAAGCC | 2.57 ± 0.66 | 2.16 ± 0.87 | 1.67 ± 0.62 |
| TACAAT | 2.84 ± 0.75 | 4.74 ± 0.94 | 7.14 ± 3.4 |
| AAAGCT | 1.03 ± 0.26 | 0.52 ± 0.21 | 0.689 ± 0.075 |
| GGGTTT | – | 0.999 ± 0.63 | 1.28 ± 1.2 |
| ACTTGC | 2.61 ± 0.94 | 3.14 ± 0.38 | 4.33 ± 1.3 |

| Sequence | relative kcat/Km [1] | relative kcat/Km [2] | relative kcat/Km [3] |
| --- | --- | --- | --- |
| ACGTTC | 2.18 ± 0.36 | 2.45 ± 0.76 | 3.59 ± 1.4 |
| TGATGC | 2.32 ± 0.093 | 3.4 ± 0.52 | 4.58 ± 1.8 |
| TCATAT | 4.21 ± 1.4 | 5.49 ± 1 | 8.18 ± 3.4 |
| CATGGT | – | – | 1.66 ± 1.1 |
| TCAGGC | 1.52 ± 0.94 | – | – |
| TCAGAG | 1.26 ± 0.99 | 0.934 ± 0.39 | 1.86 ± 0.028 |
| GGCACA | 1.43 ± 0.55 | 1.26 ± 0.95 | 2.08 ± 0.64 |
| CAGCCA | 0.956 ± 0.31 | 0.833 ± 0.06 | 1.84 ± 0.13 |
| TCGAGA | 1.37 ± 0.46 | 2.27 ± 1.3 | 3.57 ± 1.3 |
| TACTGC | 3.83 ± 1.5 | 4.1 ± 0.86 | 5.96 ± 1.5 |
| TACTTT | 3.77 ± 1.4 | 4.69 ± 0.54 | – |
| GATGAA | 1.41 ± 0.62 | 1.12 ± 1 | 2.65 ± 0.29 |
| CAGCTA | 1.51 ± 0.56 | 1.21 ± 0.27 | 1.85 ± 0.51 |
| CACTTG | – | 0.924 ± 0.61 | 2.34 ± 0.15 |
| CCGTCA | 1.74 ± 0.082 | 2.11 ± 0.3 | 2.46 ± 0.8 |
| TTGCCG | – | – | 0.519 ± 0.071 |
| TGAAAG | – | 1.15 ± 0.57 | 2.65 ± 0.8 |
| CTTCCT | 2.3 ± 0.41 | 2.56 ± 0.74 | 2.87 ± 1.1 |
| ATAATG | – | – | 1.34 ± 0.22 |
| CGGCCT | 0.9 ± 0.34 | – | 0.69 ± 0.39 |
| GAAACT | 0.428 ± 0.12 | 1.21 ± 0.23 | 1.44 ± 0.24 |
| CCATGT | 1.03 ± 0.21 | 1.23 ± 0.52 | 1.17 ± 0.29 |
